# Experimental data taken from PubChem BioAssay AID588342 (National Center for Advancing Translational Sciences (NCATS), 2011).
# The whole screen tested about 360,000 compounds, of which about 25,000 (6.9%) were called active. Inconclusive results, whose numbers are uncertain, are shown with a selection of clear calls. Calls follow the shape of the dose curve; as a rule, active = well fitted inhibition curve with a large enough effect; inconclusive = small, poorly fitted or top-dose-only effect; inactive = flat fitted curve, though single readings scatter. Potencies beside an inconclusive call are fits to weak or partial responses and may not hold up.
# Target: Luciferin 4-monooxygenase (Photinus pyralis) (UniProt P08659)
# Test: qHTS profiling assay for firefly luciferase inhibitor/activator using purifed enzyme and Km concentrations of substrates (counterscreen for miR-21 project); also: nearly all actives have a fitted effect of over 55% in size
# Settings: purified FLuc, luminescence inhibition; series mostly up to 57.5 µM
# Procedure, shortened: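 Purified P. pyralis luciferase, 10 nM final, with Km-level 10 uM D-luciferin and 10 uM ATP in 50 mM Tris acetate pH 7.5, 10 mM Mg acetate, 0.01% Tween-20, 0.05% BSA; 6-point qHTS titration about 60 µM downward; luminescence read.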
# Potency is read from the fitted curve at half-maximal effect; tags tell the direction and shape of the fitted curve.
# Sequence of UniProt P08659 (P08659 whole entry, looked up): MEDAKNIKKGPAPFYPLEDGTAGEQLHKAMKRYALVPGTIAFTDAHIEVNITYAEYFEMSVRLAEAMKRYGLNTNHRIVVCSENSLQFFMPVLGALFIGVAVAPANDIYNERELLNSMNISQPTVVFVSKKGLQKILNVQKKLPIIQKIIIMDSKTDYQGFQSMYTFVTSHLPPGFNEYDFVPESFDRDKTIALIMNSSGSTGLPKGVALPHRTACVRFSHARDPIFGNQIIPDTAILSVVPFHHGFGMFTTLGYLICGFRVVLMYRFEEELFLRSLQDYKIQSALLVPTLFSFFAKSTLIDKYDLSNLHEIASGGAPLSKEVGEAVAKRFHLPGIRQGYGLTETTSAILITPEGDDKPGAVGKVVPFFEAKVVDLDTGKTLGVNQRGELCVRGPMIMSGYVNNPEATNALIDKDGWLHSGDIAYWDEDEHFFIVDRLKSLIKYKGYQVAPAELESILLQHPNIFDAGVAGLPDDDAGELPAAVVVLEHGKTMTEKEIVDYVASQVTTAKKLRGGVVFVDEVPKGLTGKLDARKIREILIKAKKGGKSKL
row,SMILES,Potency
1,Cc1ccc(C(=O)CSc2nnc(-c3ccco3)n2Cc2ccccc2)cc1,"inconclusive: 7.57 µM [inhibitor, partial curve, poor fit]"
2,O=C(NCc1cccs1)c1ccc(CSc2nc3ccncc3n2Cc2ccccc2F)cc1,"inconclusive: 33.8 µM [inhibitor, partial curve, poor fit]"
3,CCCc1c(C(=O)N/N=C/C(C)=C/c2ccccc2)nnn1-c1nonc1N,active: 2.39 µM
4,CCCCCCOc1ccc(C(CC(=O)NC)C(=O)O)cc1 (stereo unspecified),"inconclusive: 30.1 µM [inhibitor, partial curve, poor fit]"
5,O=C1/C(=C\c2cc(Br)cc(Br)c2O)SC(=S)N1Cc1ccccc1,"inconclusive: 23.9 µM [inhibitor, partial curve, poor fit]"
6,Cc1ccc(/C=N/NC(=O)Cc2c(F)cccc2Cl)s1,"inconclusive: 37.9 µM [inhibitor, single point]"
7,Cc1ccc(SCC(=O)Nc2ccc3oc(-c4ccccc4F)nc3c2)cc1,"inconclusive: 9.53 µM [inhibitor, partial curve, poor fit]"
8,COCc1ccc(O)c2ncccc12,inactive
9,O=C(Nc1cc([N+](=O)[O-])ccc1O)c1cccc(NC(=O)c2ccco2)c1,"inconclusive: 30.1 µM [inhibitor, single point]"
10,COc1cccc(NC(=O)c2sc(NC(=O)c3ccncc3)nc2C)c1,active: 19 µM
11,Cn1nnnc1Sc1ncnc2scc(-c3ccc([N+](=O)[O-])cc3)c12,inactive
12,Cc1ccc(Nc2nnc(SCC(=O)Nc3ncc(C(F)(F)F)cc3Cl)s2)cc1,"inconclusive: 2.13 µM [inhibitor, full curve]"
13,Cc1ccc2c(C)c(C(=O)N3CCN(Cc4ccc5c(c4)OCO5)CC3)oc2c1C,active: 23.9 µM
14,O=C(COc1ccccc1[N+](=O)[O-])Nc1cccnc1,"inconclusive: 30.1 µM [inhibitor, single point]"
15,Oc1c(C(c2cccs2)N2CCN(c3ccccc3)CC2)ccc2cccnc12 (stereo unspecified),"inconclusive: 16.9 µM [inhibitor, partial curve]"
16,COCC(C)NC(=O)CSc1nc(-c2ccccc2)c(-c2ccccc2)o1 (stereo unspecified),inactive
17,COCCNC(=O)c1cc(-c2cccs2)on1,"inconclusive: 23.9 µM [inhibitor, single point]"
18,O=C(c1ccccc1Oc1ccccc1)N1CCN(c2ccccc2F)CC1,inactive
19,Cc1ccc(C(=O)N/C(=C\c2ccco2)C(=O)NCC2CCCO2)cc1C (stereo unspecified),"inconclusive: 42.6 µM [inhibitor, partial curve, poor fit]"
20,COc1ccc(/C=C2\SC(=S)N(CCC(=O)Nc3ccc(C(=O)O)cc3)C2=O)cc1OC,"inconclusive: 7.57 µM [inhibitor, partial curve, poor fit]"
21,COc1cc(OC)cc(C(=O)Oc2ccc(/C=N/Nc3nc4ccccc4s3)cc2OC)c1,"inconclusive: 21.3 µM [inhibitor, partial curve]"
22,COc1ccccc1C(=O)NC(C(=O)NCCc1nc2ccccc2[nH]1)=C(C)C,inactive
23,CC(C)Sc1nnc(NC(=O)c2ccco2)s1,active: 16.9 µM
24,O=C(Nc1ccncc1)Nc1ccccc1Cl,"inconclusive: 21.3 µM [inhibitor, single point]"

row,SMILES,Potency
1,Cc1oc(C(C)(C)C)cc1C(=O)Nc1ccc(N2CCOCC2)cc1,"inconclusive: 37.9 µM [inhibitor, single point]"
2,O=C(/C=C/c1ccccc1Cl)NCCc1ccc(F)cc1,"inconclusive: 26.9 µM [inhibitor, single point]"
3,CCOc1ccc(NC(=O)Cc2ccccc2)cc1,active: 21.3 µM
4,CC(=O)Oc1ccc2c(c1)Oc1cc(OC(C)=O)ccc1C21OC(=O)c2ccccc21,inactive
5,COc1ccc(C(=O)Nc2cccnc2Sc2ccc(Cl)cc2)cc1,"inconclusive: 23.9 µM [inhibitor, single point]"
6,Cc1cc(-c2ccc(/C=N/n3cnnc3)o2)ccc1Cl,"inconclusive: 16.9 µM [inhibitor, partial curve]"
7,Cc1ccc(NC(=O)Nc2cc(S(=O)(=O)N(C)C)ccc2C)cc1,"inconclusive: 23.9 µM [inhibitor, partial curve, poor fit]"
8,Cc1cc(Br)cc2c1N(Cc1ccccc1OC(C)C)C(=O)C2=O,"inconclusive: 26.9 µM [inhibitor, partial curve, poor fit]"
9,Cc1cc(NC(=O)c2ccccc2)cc(NC(=O)c2ccccc2)c1C,"inconclusive: 2.69 µM [inhibitor, partial curve]"
10,Cc1ccccc1NC(=O)c1ccccc1NC(=O)c1cccs1,"inconclusive: 15.1 µM [inhibitor, partial curve]"
11,CN(c1ccccc1)c1ccc(/C=C/[N+](=O)[O-])cc1,active: 10.7 µM
12,CN(C)c1nc(N)nc(-c2nc3ccccc3s2)n1,"inconclusive: 2.39 µM [inhibitor, full curve]"
13,CC(C)(C)c1ccc(OCCOCCn2c(-c3ccc(Cl)cc3)nc3ccccc3c2=O)cc1,inactive
14,O=C(COC(=O)c1cccc(NC(=O)c2ccc(Br)cc2)c1)c1ccc(Cl)cc1,active: 2.69 µM
15,COc1ccccc1C(=O)Nc1ccc2c(c1)nc(CCNC(=O)c1ccccc1)n2C,active: 15.1 µM
16,Cc1ccc(S(=O)(=O)N2CCC(=O)N(CCOC(=O)Nc3ccc(F)cc3)CC2)cc1,"inconclusive: 37.9 µM [inhibitor, partial curve, poor fit]"
17,COCCN1CCn2c(nc3cc(Nc4nnc(C)c5ccccc45)ccc32)C1,"inconclusive: 42.6 µM [inhibitor, partial curve, poor fit]"
18,Cc1cccc(Cn2c(COc3ccccc3)nc3ccccc32)c1,"inconclusive: 15.1 µM [inhibitor, partial curve]"
19,CCn1c2ccccc2c2cc(NC(=O)COc3cc(C)ccc3C)ccc21,inactive
20,CCCCC(=O)Nc1ccc(Br)cn1,"inconclusive: 26.9 µM [inhibitor, partial curve, poor fit]"
21,O=c1nc2sc3ccccc3n2c(=O)n1-c1ccc(Cl)cc1,inactive
22,O=[N+]([O-])c1ccc(C2=NN(c3ccccc3)C(c3ccco3)C2)cc1 (stereo unspecified),"inconclusive: 26.9 µM [inhibitor, single point]"
23,CCCCCn1c(=O)[nH]c2cc(C(=O)NC(C)CC)ccc2c1=O (stereo unspecified),inactive
24,Clc1cccc(Cl)c1CSc1nnc2ccccn12,"inconclusive: 23.9 µM [inhibitor, partial curve, poor fit]"

row,SMILES,Potency
1,CCCc1cc(=O)[nH]c(SCC(=O)Nc2ccc(C)cc2)n1,inactive
2,CSc1nsc(/C=C/Nc2ccc(C(=O)O)cc2)c1C#N,active: 12 µM
3,COc1ccc(NC(=O)Nc2ccc(F)cc2)cn1,"inconclusive: 16.9 µM [inhibitor, partial curve]"
4,CC1(C)CC(=O)C=C(Nc2ccc3c(c2)OCCO3)C1,"inconclusive: 19 µM [inhibitor, partial curve, poor fit]"
5,COc1cccc(Cn2c(SCc3ccc(C(=O)N4CCCCC4)cc3)nc3ccncc32)c1,"inconclusive: 30.1 µM [inhibitor, partial curve, poor fit]"
6,Fc1ccc(N=C2NN=C(c3cc(F)ccc3F)CS2)cc1,active: 23.9 µM
7,O=C(Cn1nnc2ccccc21)c1ccc(Br)cc1,active: 23.9 µM
8,CC1(C)CC(=O)C(C(C2=C(O)CC(C)(C)CC2=O)c2ccco2)C(=O)C1 (stereo unspecified),"inconclusive: 23.9 µM [inhibitor, partial curve]"
9,O=C(Cc1ccc(Cl)cc1)Nc1cccc(C(=O)Nc2ccccc2C(=O)O)c1,inactive
10,O=C(Nc1ncccc1O)c1cc2ccccc2o1,active: 3.38 µM
11,CCOC(=O)C1=C(COC(=O)/C=C/c2ccc([N+](=O)[O-])cc2)NC(=O)NC1C (stereo unspecified),inactive
12,COc1cc(/C=N/NC(=O)c2ccc(F)cc2)ccc1OC(=O)c1ccco1,"inconclusive: 7.57 µM [inhibitor, single point]"
13,CCc1c(C)nc2[nH]nc(-c3ccccc3C)n2c1=O,"inconclusive: 37.9 µM [inhibitor, partial curve, poor fit]"
14,COc1cccc(OCc2nnc(SCc3cc(=O)[nH]c4ccccc34)o2)c1,"inconclusive: 21.3 µM [inhibitor, partial curve, poor fit]"
15,N#C/C(C(=O)c1ccccc1)=C1/SC=C(N)N1c1ccccc1,"inconclusive: 19 µM [inhibitor, partial curve, poor fit]"
16,COc1ccccc1C1=NOC(CN2C(=O)c3ccccc3S2(=O)=O)C1 (stereo unspecified),active: 8.49 µM
17,Cc1cc(NCc2ccccc2)nc2ccccc12,"inconclusive: 37.9 µM [inhibitor, single point]"
18,COc1ccc(-c2cn3c(C)c(C(=O)N4CCc5ccccc5C4)sc3n2)cc1,"inconclusive: 30.1 µM [inhibitor, partial curve, poor fit]"
19,N#CCC(=O)N/N=C/c1ccc(OS(=O)(=O)c2ccccc2)cc1,inactive
20,O=C(NCc1ccccn1)Nc1ccccc1Cl,inactive
21,COc1ccc2c(c1)CCc1sc(NC(=O)c3ccc(C)cc3)nc1-2,active: 8.49 µM
22,CCOC(=O)C1=C(CC)Nc2ccccc2N/C1=N\S(=O)(=O)c1ccc2ccccc2c1,"inconclusive: 19 µM [inhibitor, partial curve, poor fit]"
23,COc1ccc(CC(=O)Nc2ccc(N3CCCC3)c(C)c2)cc1,"inconclusive: 16.9 µM [inhibitor, partial curve]"
